The record followed here is US6706762 (SALK INSTITUTE FOR BIOLOGICAL STUDIES, dated 1998).

The target in this experiment is T1, mSin3A (UniProt Q60520 1-1274, 35S-methionine label).
T1 construct: also called 35S Methionine labeled mSin3A
T1 sequence (looked up): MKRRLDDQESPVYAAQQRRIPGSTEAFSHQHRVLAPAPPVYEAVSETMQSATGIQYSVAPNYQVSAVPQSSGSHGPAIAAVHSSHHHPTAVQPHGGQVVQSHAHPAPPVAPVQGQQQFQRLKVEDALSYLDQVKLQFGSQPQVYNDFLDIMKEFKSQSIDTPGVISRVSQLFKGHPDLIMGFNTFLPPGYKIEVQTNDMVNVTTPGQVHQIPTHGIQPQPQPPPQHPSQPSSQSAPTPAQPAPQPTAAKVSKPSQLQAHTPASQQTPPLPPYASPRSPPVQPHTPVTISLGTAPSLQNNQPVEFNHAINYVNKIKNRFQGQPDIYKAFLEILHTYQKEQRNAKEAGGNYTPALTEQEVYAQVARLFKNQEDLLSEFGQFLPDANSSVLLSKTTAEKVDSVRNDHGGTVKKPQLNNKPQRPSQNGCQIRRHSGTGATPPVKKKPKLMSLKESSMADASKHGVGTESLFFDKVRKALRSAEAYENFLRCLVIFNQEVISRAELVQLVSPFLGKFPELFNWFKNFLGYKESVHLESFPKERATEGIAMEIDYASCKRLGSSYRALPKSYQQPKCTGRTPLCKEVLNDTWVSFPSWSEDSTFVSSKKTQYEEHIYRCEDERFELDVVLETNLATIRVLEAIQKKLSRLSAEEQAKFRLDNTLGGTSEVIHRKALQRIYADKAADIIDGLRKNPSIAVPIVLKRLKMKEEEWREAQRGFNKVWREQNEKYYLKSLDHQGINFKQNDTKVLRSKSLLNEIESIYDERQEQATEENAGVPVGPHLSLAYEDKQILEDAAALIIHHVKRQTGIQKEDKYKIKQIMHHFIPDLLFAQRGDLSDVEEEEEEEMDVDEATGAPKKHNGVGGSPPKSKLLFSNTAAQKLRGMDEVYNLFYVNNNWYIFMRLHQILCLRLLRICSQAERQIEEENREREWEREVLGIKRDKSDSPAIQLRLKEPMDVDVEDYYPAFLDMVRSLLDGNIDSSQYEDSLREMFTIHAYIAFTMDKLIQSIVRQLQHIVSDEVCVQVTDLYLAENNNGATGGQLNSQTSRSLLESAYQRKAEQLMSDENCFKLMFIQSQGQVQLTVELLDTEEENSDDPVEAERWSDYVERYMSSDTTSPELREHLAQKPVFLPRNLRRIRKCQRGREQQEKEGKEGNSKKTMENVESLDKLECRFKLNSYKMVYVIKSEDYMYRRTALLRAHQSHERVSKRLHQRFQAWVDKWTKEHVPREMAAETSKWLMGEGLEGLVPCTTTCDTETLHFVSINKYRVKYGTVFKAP
The experiment is described as follows: GST pull-down.

B1: GST (enzyme)
chain: not shown
notes: Control matrix; also called GST alone; glutathione-S-transferase
Consider B1, for which the binding result is recorded as “no binding”.
